From the antibiotic and cytotoxicity screens of Wong et al. (2023)
This is one part of the list.

Columns and labels:
HSkMC = human skeletal muscle cells; assay: cytotoxicity call (relative viability < 0.9); conditions: 10 µM
HepG2 = assay: cytotoxicity call (relative viability < 0.9); conditions: 10 µM
S. aureus RN4220 = assay: growth inhibition call (relative growth <= 0.2); conditions: 50 µM

COc1ccccc1-c1cnc2c(c1)C(=O)N([C@@H](C)CO)C[C@@H](C)[C@H](CN(C)C(=O)c1cccnc1)O2
inactive: cytotoxicity call (HSkMC) | cytotoxicity call (HepG2) | growth inhibition call (S. aureus RN4220)

COCC(=O)N1C[C@@H](C)[C@H](OC)CN(C)C(=O)c2cc(NC(=O)c3ccc(OC)cc3)ccc2OC[C@H]1C
inactive: cytotoxicity call (HSkMC) | cytotoxicity call (HepG2) | growth inhibition call (S. aureus RN4220)

C[C@H](CO)N1C[C@H](C)[C@H](CN(C)C(=O)Nc2ccc(C(F)(F)F)cc2)Oc2ncc(/C=C/c3ccccc3)cc2C1=O
inactive: cytotoxicity call (HSkMC) | cytotoxicity call (HepG2) | growth inhibition call (S. aureus RN4220)

COc1ccc(NC(=O)N(C)C[C@@H]2OCc3cn(nn3)CCCC(=O)N([C@H](C)CO)C[C@H]2C)c(OC)c1
inactive: cytotoxicity call (HSkMC) | cytotoxicity call (HepG2) | growth inhibition call (S. aureus RN4220)

Cc1ccc(C#N)c(SCC(N)=O)n1
inactive: cytotoxicity call (HSkMC) | cytotoxicity call (HepG2) | growth inhibition call (S. aureus RN4220)

C[C@H](CO)N1C[C@H](C)[C@@H](CN(C)C(=O)Nc2cccc3ccccc23)Oc2ccc(NC(=O)Nc3cccc4ccccc34)cc2C1=O
inactive: cytotoxicity call (HSkMC) | cytotoxicity call (HepG2) | growth inhibition call (S. aureus RN4220)

C[C@@H]1CN([C@H](C)CO)C(=O)CCCn2nncc2CO[C@H]1CN(C)C(=O)Nc1cccc2ccccc12
inactive: cytotoxicity call (HSkMC) | cytotoxicity call (HepG2) | growth inhibition call (S. aureus RN4220)

C[C@@H]1CN([C@@H](C)CO)S(=O)(=O)c2ccc(C3=CCCCC3)cc2O[C@@H]1CN(C)Cc1cncnc1
inactive: cytotoxicity call (HSkMC) | cytotoxicity call (HepG2) | growth inhibition call (S. aureus RN4220)

C[C@H]1CN([C@@H](C)CO)C(=O)c2cccc(NC(=O)NC3CCCCC3)c2O[C@@H]1CN(C)S(=O)(=O)c1cn(C)cn1
inactive: cytotoxicity call (HSkMC) | cytotoxicity call (HepG2) | growth inhibition call (S. aureus RN4220)

CN(C)S(=O)(=O)c1ccc(C#N)cc1
inactive: cytotoxicity call (HSkMC) | cytotoxicity call (HepG2) | growth inhibition call (S. aureus RN4220)
